In PubChem BioAssay AID434955 (Southern Research Specialized Biocontainment Screening …, 2010):
Several values for one entry are separate records, joined by “and”; a condition that tells them apart may be missing. Equal entries are not always repeated. Some of the results follow. Further columns of the screen follow, without active or inactive calls. The list favours compounds with an active or inconclusive main result.

assay: beta-lactam sensitization of Mtb H37Rv, H37Rv (AID 434955);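 also: growth measured after seven days incubation then overnight dye step; 0% = bacteria only wells and 100% = bacteria with antibiotic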; details: M. tuberculosis H37Rv growth with meropenem, percent inhibition; measured here: primary screen without meropenem; at 25 µM

Row | Compound | inhibition
1 | CC(=O)Nc1ccc(S(=O)(=O)NC2(C(F)(F)F)NC(=O)N(Cc3ccccc3)C2=O)cc1 (centres undefined) | -4.59%
2 | O=C(Nc1nc(-c2ccc3c(c2)OCO3)cs1)c1ccncc1 | -9.93%
3 | CCOC(=O)CN(Cc1sccc1C)C(=O)Nc1ccc(OCC)cc1 | -0.41%
4 | CC(C)c1ccc(/C=C(\NC(=O)c2ccccc2)C(=O)NCCN2CCOCC2)cc1 | 2.76%
5 | Cc1cc(N2CCCCCC2)nc(-c2ccccc2O)n1 | 41.2%
6 | CCCCCCC(=O)Nc1nc(C)c(-c2csc(Nc3cc(Cl)ccc3OC)n2)s1 | 20.8%
7 | CCC(C)NCCOCCOc1ccc(Cl)c2ccccc12 (centres undefined) | 33.5%
8 | CCOC(=O)CSc1nnc(-c2nnc(SCC(=O)OCC)n2CC)n1CC | 3.91%
9 | CCn1c(=O)cc(SCC(=O)N2CCN(C3CCCCC3)CC2)c2ccccc21 | 7.02%
10 | CN1CCN(S(=O)(=O)c2ccc3[nH]cc(C(=O)O)c(=O)c3c2)CC1 | 0.23%
11 | Cc1nc(C)c(-c2csc(NCc3ccccc3)n2)s1 | 9.91%
12 | CCOC(=O)N1CCN(C(=O)c2ccc3c(=O)n(Cc4ccccc4OC)c(=S)[nH]c3c2)CC1 | -15.9%
13 | CC(=O)NCCc1ccc(S(=O)(=O)NC2OC(=O)c3ccccc32)cc1 (centres undefined) | -0.49%
14 | Cc1nnc(Sc2nc3c(c(=O)n(C)c(=O)n3C)n2Cc2ccccc2Cl)s1 | 9.1%
15 | O=C(CN1Cc2ccccc2C1=O)Nc1ccc2c(c1)OCCO2 | 9.54%
16 | Cc1ccc(NC(=O)CCc2nnc3ccc(N4CCOCC4)nn23)cc1C | -6.29%
17 | O=C(CCSCc1ccccc1Cl)NC1CCCC1 | 2.51%
18 | CCOC(=O)N1CCN(C(=O)Cn2c(=O)sc3ccccc32)CC1 | -1.63%
19 | Cc1ccc2c3c(c(SCC(=O)Nc4nonc4C)nc2c1)CCCC3 | -0.19%
20 | NC(=O)C1CCCN(Cc2c(C(=O)N3CCc4ccccc4C3)nc3ccc(Cl)cn23)C1 (centres undefined) | -5.22%
21 | CCCCCCOC(=O)NCC(O)c1ccccc1 (centres undefined) | 6.28%
22 | COC(=O)c1sc(S(=O)(=O)N2CCCCC2)c(C(=O)OC)c1C | -6.84%
23 | CCc1cc(C(N)=S)ccn1 | 97.6% and 40.1%

Row | Compound | inhibition
24 | CSc1ncc(Cl)c(C(=O)Nc2cccc3ccccc23)n1 | 29.6%
25 | Cc1nn(-c2ccccc2)c(Cl)c1/C=N/NC(=O)c1ccn[nH]1 | -3.77%
26 | O=C(O)C1C2C=CC3(CN(C4CCCC4)C(=O)C13)O2 (centres undefined) | -11.7%
27 | Cn1nc(-c2ccc(Cl)cc2)nc2c(=O)n(C)c(=O)nc1-2 | 99.4%
28 | Cc1ccc(S(=O)(=O)N2CCN(C(=O)c3ccccc3)CC2)cc1 | -0.71%
29 | COc1ccc(F)c(-c2nc(CN3CCN(C(=O)c4ccco4)CC3)c(C)o2)c1 | 1.16%
30 | O=C(c1ccc(-c2ccc(Cl)cc2)o1)N1CCN(S(=O)(=O)c2cccs2)CC1 | 33.1%
31 | Cc1cc(CNC(=O)C2CCC(=O)N(Cc3ccccc3F)C2)on1 (centres undefined) | 1.46%
32 | Cc1cc(C=C2C(=O)NC(=S)NC2=O)c(C)n1-c1ccc2c(c1)OCO2 | 14.7%
33 | OC1c2cc(Br)ccc2N=C2CCCN21 (centres undefined) | 2.48%
34 | CC(=O)Nc1ccc(S(=O)(=O)NCC(=O)OCC(=O)N2CCN(c3ccccc3)CC2)cc1 | -3.81%
35 | CN1CCN(S(=O)(=O)c2ccc(NC(=O)c3ccc(Br)s3)cc2)CC1 | 9.54%
36 | O=S(=O)(c1cnccc1N1CCN(CCO)CC1)N1CCCCC1 | 5.61%
37 | O=C(CSc1nc2ccccc2n1CC(=O)N1CCCC1)Nc1ccc2c(c1)OCO2 | -0.02%
38 | CC1(C)CCCC2=C1CC1C(=O)N(Cc3cccnc3)C(=O)C1C2 (centres undefined) | 3.23%
39 | COc1cccc(/C=N/n2c(C3CCCCC3)n[nH]c2=S)c1OC | 1.94%
40 | NC(=S)N/N=C/c1ccc2ccccc2c1 | 13.8%
41 | Cc1nnc(SCC(=O)Nc2ccc3c(c2)OCCO3)s1 | 3.58%
42 | O=c1[nH]c(=S)[nH]c(O)c1N=Nc1ccc(SC(F)F)cc1 | 26%
43 | Cc1cc(C)c(OCC(=O)Nc2nc3ccccc3[nH]2)c(C)c1 | 23.2%
44 | CCOc1ccc(S(=O)(=O)N(C)C2CCCCC2)cc1 | -3.16%
45 | COc1cccc(OCc2cc(C(=O)N(C)Cc3nc(C)cs3)no2)c1 | 10.8%
46 | O=C(CSc1nccn1Cc1ccco1)Nc1ccc(F)cc1 | 0.89%

Row | Compound | inhibition
47 | O=C1OC(c2ccccc2)=C/C1=C/c1cccs1 | -3.59%
48 | Cc1ccccc1CS(=O)(=O)c1nnc([C@H](CC(C)C)NC(=O)OC(C)(C)C)o1 | 1.12%
49 | O=C(Nc1ccccc1C(=O)NCc1ccccc1)c1ccccc1 | 17.4%
50 | COc1ccc(CCCNC(=O)C2CCC(=O)N(CC3CCCCC3)C2)cc1 (centres undefined) | 3.51%
51 | CN(CC(=O)N1CCCC1)S(=O)(=O)c1cc(Cl)ccc1Cl | -6.06%
52 | CCOc1ccc(N(CC(=O)N2CCCCCC2)S(=O)(=O)c2ccc(C)cc2)cc1 | -5.92%
53 | COc1ccc(S(=O)(=O)N2CCCC(C(=O)NCC3CCCO3)C2)cc1C (centres undefined) | 2.21%
54 | COc1ccccc1NC(=O)CCSc1nnnn1C | -1.99%
55 | CCOc1ccc(N(CC(=O)NCc2cccc(OC)c2)S(=O)(=O)c2c(C)noc2C)cc1 | -5.82%
56 | CCCN(CC1CCCO1)C(=O)c1cc(COc2ccc(F)cc2F)on1 (centres undefined) | -0.76%
57 | CN(c1ccc(C(=O)Nc2ccccc2Sc2ccccc2)cc1)S(C)(=O)=O | 41.5%
58 | CC(C)OP(=O)(OC(C)C)C(Nc1ccccc1)c1ccc2c(c1)OCO2 (centres undefined) | -3.85%
59 | C=CCc1cccc(/C=N/NC(=O)COc2ccc(-n3cnnn3)cc2)c1O | 5.24%
60 | COc1ccccc1-c1nnc(NC(=O)CCS(=O)(=O)c2ccccc2)o1 | -1.92%
61 | Cc1ccc(S(=O)(=O)NC2=NCN(CCOC(=O)c3ccc([N+](=O)[O-])cc3)CN2)cc1 | -9.85%
62 | Cc1cccc(NC(=O)c2ccc(S(=O)(=O)N(C)CC3CCCO3)cc2)c1C (centres undefined) | 4.56%
63 | O=C(OCC(=O)N1CCN(C(=O)c2ccco2)CC1)c1ccc(Cl)c(Cl)c1 | 78.9%
64 | CCCCNC(=O)c1onc(CSc2ccc(OC)cc2)c1C(=O)O | 30.5%
65 | O=C(Cn1cnc2c(nnn2Cc2ccc(Cl)cc2)c1=O)NCC1CCCO1 (centres undefined) | 0.8%
66 | Cc1cc(C)cc(SCc2noc(C(=O)NC(C)C)c2C(=O)O)c1 | 1.24%
67 | CCOC(=O)c1c(C)c(C(=O)N2CCCCCC2)c(C)n1C | 0.38%
68 | CC(CN1CCC(n2nccc2NC(=O)c2ccccc2Cl)CC1)c1ccccc1 (centres undefined) | 4.63%
69 | COc1cc(NS(=O)(=O)c2ccc3c(c2)C(C)(C)C(=O)N3C)cc(OC)c1 | -6.62%
